Whole data set: some 81,000 sequences, median “one-hybrid fitness for binding NBS DNA” near -0.1, cut for the highest 2% near 0.36. The list shows a part of the results.
B1: Caulobacter ParB omega fusion; a variant is named by its letters at X, in order, B8GW30 (parent)
chain: MESVVVGEPGMSEGRRGLGRGLSALLGEVDAAPAQAPGEQLGGSREAPIEILQRNPDQPRRTFREEDLEDLSNSIREKGVLQPILVRPSPDTAGEYQIVAGERAWRAAQRAGLKTVPIMVRELDDLAVLEIGIIENVQRADLNVLEEALSYKVLMEKFERTQENIAQTIGKSXSHVANXMRLLXLPDEVQSYLVSGELTAXHARAIAAAADPVALAKQIIEGGLSVRETEALARKAPNLSAGKSKGGRPPRVKDTDTQALESDLSSVLGLDVSIDHRGSTGTLTITYATLEQLDDLCNRLTRGI

Variants of: B1
Assay: one-hybrid fitness for binding NBS DNA (the Noc-binding site; scaled: cognate 1, non-cognate 0); higher = stronger binding
Conditions: with NBS DNA site
Method in brief: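 Bacterial one-hybrid selection in E. coli USO rpoZ- hisB- pyrF- with a HIS3 reporter carrying the site 19 bp from the promoter, screening Caulobacter ParB libraries with four specificity codons randomised (NNS). Cells grew 48 hours at 37°C on M9-minus-histidine plus 0.1 mM IPTG and 5 mM 3-AT. Plasmids before and after selection were Illumina-sequenced, three replicate libraries pooled, and variants under 10 reads dropped. Fitness is the log change in variant-to-wild-type read ratio, rescaled to cognate 1, non-cognate 0.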

| Variant | one-hybrid fitness for binding NBS DNA |
| --- | --- |
| HKGG | ≤ 0.2 |
| NNTC | ≤ 0.2 |
| PPNS | ≤ 0.2 |
| RIFI | ≤ 0.2 |
| PAPD | ≤ 0.2 |
| RKNF | ≤ 0.2 |
| HPPK | ≤ 0.2 |
| PLAD | ≤ 0.2 |
| SPTF | ≤ 0.2 |
| DDVV | ≤ 0.2 |
| FAHM | ≤ 0.2 |
| ETSE | ≤ 0.2 |
| ERTN | ≤ 0.2 |
| HLAR | ≤ 0.2 |
| PFGK | ≤ 0.2 |
| KHMT | ≤ 0.2 |
| WDMR | ≤ 0.2 |
| DHYT | ≤ 0.2 |
| QYPW | ≤ 0.2 |
| MMAG | ≤ 0.2 |
| FLFY | ≤ 0.2 |
| VAKD | ≤ 0.2 |
| RFES | ≤ 0.2 |
| KVIR | ≤ 0.2 |
| YLRG | ≤ 0.2 |

| Variant | one-hybrid fitness for binding NBS DNA |
| --- | --- |
| DPNS | ≤ 0.2 |
| FNQD | ≤ 0.2 |
| YEWR | ≤ 0.2 |
| RSDF | ≤ 0.2 |
| TVHS | ≤ 0.2 |
| TYYV | ≤ 0.2 |
| EGMS | ≤ 0.2 |
| NNND | ≤ 0.2 |
| ESSL | ≤ 0.2 |
| MQTM | ≤ 0.2 |
| WRGI | ≤ 0.2 |
| QPSN | ≤ 0.2 |
| WAME | ≤ 0.2 |
| HHLR | ≤ 0.2 |
| LERT | ≤ 0.2 |
| QLGR | 0.496 |
| FSIS | ≤ 0.2 |
| MSCT | ≤ 0.2 |
| SKRS | ≤ 0.2 |
| GTHC | ≤ 0.2 |
| RVKT | 0.652 |
| YYVS | ≤ 0.2 |
| RFRK | ≤ 0.2 |
| SSDT | ≤ 0.2 |
| PAFF | ≤ 0.2 |

| Variant | one-hybrid fitness for binding NBS DNA |
| --- | --- |
| YICV | ≤ 0.2 |
| QVYK | ≤ 0.2 |
| RQFH | ≤ 0.2 |
| NADI | ≤ 0.2 |
| EISH | ≤ 0.2 |
| QEGG | ≤ 0.2 |
| KYYT | ≤ 0.2 |
| GCLV | ≤ 0.2 |
| WVRS | ≤ 0.2 |
| GKIC | ≤ 0.2 |
| RCTQ | ≤ 0.2 |
| NEQL | ≤ 0.2 |
| IMIC | ≤ 0.2 |
| QQFC | ≤ 0.2 |
| QCIG | ≤ 0.2 |
| PCSV | ≤ 0.2 |
| DKIL | ≤ 0.2 |
| QYLD | ≤ 0.2 |
| MQPC | ≤ 0.2 |
| ITKG | ≤ 0.2 |
| CVIT | ≤ 0.2 |
| RGGD | ≤ 0.2 |
| ATLD | ≤ 0.2 |
| LRNL | ≤ 0.2 |
| LRTL | ≤ 0.2 |

| Variant | one-hybrid fitness for binding NBS DNA |
| --- | --- |
| HSAL | ≤ 0.2 |
| NIGL | ≤ 0.2 |
| NFFS | ≤ 0.2 |
| KYHR | ≤ 0.2 |
| IRHC | ≤ 0.2 |
| FNRL | ≤ 0.2 |
| NHPC | ≤ 0.2 |
| LTGS | ≤ 0.2 |
| KGFR | ≤ 0.2 |
| YAVQ | ≤ 0.2 |
| GVTG | ≤ 0.2 |
| PQDT | ≤ 0.2 |
| RMFF | ≤ 0.2 |
| MLSL | ≤ 0.2 |
| MANI | ≤ 0.2 |
| RCKW | ≤ 0.2 |
| QIIL | ≤ 0.2 |
| HRCP | ≤ 0.2 |
| QLVK | ≤ 0.2 |
| SNSM | ≤ 0.2 |
| AARR | ≤ 0.2 |
| RQEF | ≤ 0.2 |
| RFTT | 0.269 |

— a collection of fitness landscapes (doi:10.1016/j.celrep.2020.107928)
